± gives the standard deviation of the averaged measurements. This is one part of the list.

We go through 57 sequences from the supplement of paper PMC11417369.

The test system of the assay is PfAP2-EXP AP2 domain (GST-tagged). In words: gcPBM binding intensity (ln(normalized median fluorescence intensity)); higher = stronger DNA binding. In outline:
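DNA-binding domains from P. falciparum, fused to GST and produced in E. coli, were put on an Agilent 4 × 180k double-stranded probe array for 1 h in 1× PBS holding 1% milk, 0.2 mg/ml BSA, 0.5% salmon testes DNA and 0.03% Triton X-100. Probes were primer-extended, 36 bp long and drawn from intergenic genomic regions, with negative controls included. After Alexa488 anti-GST antibody detection and a 488 nm scan, binding intensity was set as the highest Masliner-normalised natural-log median intensity across replicate spots of either probe orientation.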
As to “TTATTTATATATTCATGTACATAACATTTCATTCGA [XGTACX_site4388]”, the “gcPBM binding intensity (ln)” value was 8.59 ± 0.26.

In the case of “TTTTAAGAATAAAATTGTACACATACATGTGTTCGC [XGTACX_site438]”, the “gcPBM binding intensity (ln)” value was found to be 8.27 ± 0.26.

Consider “AAACAGAAGACATATACACACATACAAAAAAGTGCA [CACACA_site4699]”, for which the “gcPBM binding intensity (ln)” value was 8.81 ± 0.33.

For TTCTCATTCAAATTAGTGCATTTTTGTTATTACATT, the “gcPBM binding intensity (ln)” value turned out to be 9.04 ± 0.028.

On to “TGTGTATATATATAATGTACATAAAGATTTATATAT [XGTACX_site5835]”, for which the “gcPBM binding intensity (ln)” value is 8.62 ± 0.36.

As to “ATACTAAAAAGTATCTGTACTTATTTTAAAAATAAA [XGTACX_site4116]”, the “gcPBM binding intensity (ln)” value was 8.32 ± 0.32.

Consider “TTTTCTAAAATGAATTGTACTTGATTATTTAAAAAA [XGTACX_site6097]”, for which the “gcPBM binding intensity (ln)” value turned out to be 8.02 ± 0.4.

In the case of “TAAAAAATGAAAAAGCGTACATGTTTTCTTATATTA [XGTACX_site1722]”, the “gcPBM binding intensity (ln)” value amounted to 8.38 ± 0.33.

As for “TGTATCATAAAAATAACACACGTATTTTTTTTTATT [CACACA_site1050]”, the “gcPBM binding intensity (ln)” value turned out to be 8.36 ± 0.47.

With “TAAATAATTAAAATATGTACTGAAATGTAATTATTT [XGTACX_site5894]”, the “gcPBM binding intensity (ln)” value worked out at 8.47 ± 0.51.

On to “TATTTACTTATATGCACACATAAATGTGAATTATGG [CACACA_site3777]”, for which the “gcPBM binding intensity (ln)” value was 8.34 ± 0.23.

Take “ATATAATAAAATGACACACGCATATATATATATATA [CACACA_site2789]”: the “gcPBM binding intensity (ln)” value amounted to 10.2 ± 0.51.

With “TTTCTTTTTAAATATATACACACCGTGGGTACATAT [CACACA_site9102]”, the “gcPBM binding intensity (ln)” value turned out to be 8.53 ± 0.49.

Consider “TTATATTTATTTATTTGTACATATTTTTTTTTATAT [XGTACX_site1669]”, for which the “gcPBM binding intensity (ln)” value came to 8.75 ± 0.34.

For the sequence “ATAAAATATTAATTTTAAATTAATCAATATATATAA [GTGCAC_negctrl_site474]”, the “gcPBM binding intensity (ln)” value was 8.07 ± 0.44.

As to “TCATATCTTTTGAGCACACATATATATATATAAAGG [CACACA_site3338]”, the “gcPBM binding intensity (ln)” value came out at 8.71 ± 0.34.

For the sequence “ATTAATATTCTATATGCATGTGAACCATGGTATATA [TGCATGCA_site430]”, the “gcPBM binding intensity (ln)” value worked out at 8.7 ± 0.32.

With “ATATATATATATATATGTACTTATTTATCGTATTAT [XGTACX_site3520]”, the “gcPBM binding intensity (ln)” value stood at 10.1 ± 0.5.

For the sequence “ATTTTTTCTTATAATGCATGTAGAAAACCGTACAGC [TGCATGCA_site57]”, the “gcPBM binding intensity (ln)” value came out at 8.77 ± 0.32.

On to “AGGCTCAAATCTAGGTGTACCATTATCGTTGTATCT [XGTACX_site4730]”, for which the “gcPBM binding intensity (ln)” value was 8.6 ± 0.47.

For “TATGTGTTTATTTGGTGTACATACTAATAAATATAC [XGTACX_site1682]”, the “gcPBM binding intensity (ln)” value was 8.68 ± 0.11.

Take “CCTAAATTATATTATGCACACTTAAAAATATATTTA [CACACA_site5861]”: the “gcPBM binding intensity (ln)” value turned out to be 8.615 ± 0.007.

Turning to “ATAAATGGAAACAAAAGTACTAAAAAAAAAAAATAA [XGTACX_site1510]”, the “gcPBM binding intensity (ln)” value turned out to be 8.64 ± 0.41.

Consider “AATAATATAGATTGTACACACAAAATGGGAAAAAAA [CACACA_site1886]”, for which the “gcPBM binding intensity (ln)” value was found to be 9 ± 0.41.

In the case of “ACGGGTCAATATATGCGTACTTATTTAAATAATTAA [XGTACX_site1518]”, the “gcPBM binding intensity (ln)” value stood at 8.57 ± 0.42.

Regarding “ATTATGTATATAAATTAACACACATATGTGGTTAAT [CACACA_site9028]”, the “gcPBM binding intensity (ln)” value was 8.36 ± 0.44.

Turning to “TATATATGTATGTATTGTACAATTAAAAATATGTAT [XGTACX_site3990]”, the “gcPBM binding intensity (ln)” value amounted to 8.55 ± 0.39.

As to “AAAAAAAAAAAAGATACACACAAAAATGAATATATA [CACACA_site2099]”, the “gcPBM binding intensity (ln)” value turned out to be 8.2 ± 0.47.

As to “ATATATATATATATATGTACATATATATATAATTTT [XGTACX_site4146]”, the “gcPBM binding intensity (ln)” value was 9.96 ± 0.3.

Regarding “ATATATATATATAACTGTACTTATATATACATTTTA [XGTACX_site8605]”, the “gcPBM binding intensity (ln)” value is 9.92 ± 0.33.

For “TAAATAAATAAAAAAACACACATATATATATATATA [CACACA_site4029]”, the “gcPBM binding intensity (ln)” value is 10.2 ± 0.32.

For the sequence “ATCAAGCACCAACACACACACACACCCCCACCCACA [CACACA_site370]”, the “gcPBM binding intensity (ln)” value worked out at 9.43 ± 0.4.

As for “TTTTATCACATTATTGCACACACATAAAGAAAAAAA [CACACA_site8922]”, the “gcPBM binding intensity (ln)” value came to 8.63 ± 0.27.

For the sequence “TTTATGTAGGAACTAACACACATTGTAAGATTCAGA [CACACA_site1998]”, the “gcPBM binding intensity (ln)” value was determined as 8.44 ± 0.38.

In the case of “GGAACTTTTGGAGGTGCATGCGGAGCAATCTTTTCA [TGCATGCA_site454]”, the “gcPBM binding intensity (ln)” value came out at 9.12 ± 0.21.

As for “CATATCAATAATATCACACATATATGTGATTTTATT [CACACA_site5053]”, the “gcPBM binding intensity (ln)” value came out at 8.35 ± 0.28.

Consider “TTATTAATTTATAAATGTACGAATTTTTTATTTAAC [XGTACX_site7605]”, for which the “gcPBM binding intensity (ln)” value is 8.31 ± 0.42.

“CCCCTTAATTAAAGGAGTACTATTTGTGAATAATAT [XGTACX_site4715]”: the “gcPBM binding intensity (ln)” value came to 9.2 ± 0.39.

“TATTAATAATTAAGTTGTACATTAATTAATATACTG [XGTACX_site6994]”: the “gcPBM binding intensity (ln)” value worked out at 8.24 ± 0.31.

As to “TTTAATATTAATAATTGTACATTTTCATAAATACGC [XGTACX_site2837]”, the “gcPBM binding intensity (ln)” value worked out at 8.4 ± 0.36.

For “TTTAAACCTTAATATTGTACGCAAAAAAAAAAAGAA [XGTACX_site3757]”, the “gcPBM binding intensity (ln)” value was determined as 8.67 ± 0.41.

With “AGGAAAAAATCGAGTAGTACACATTTAGAAATATAA [XGTACX_site8019]”, the “gcPBM binding intensity (ln)” value worked out at 8.74 ± 0.43.

“AAAATATAAATTCATGTGCACATATATATTTTGTTA [GTGCAC_site9782]”: the “gcPBM binding intensity (ln)” value amounted to 8.71 ± 0.28.

With “ATATCACATATATATATATATATATATATATATATA [XGTACX_negctrl_site463]”, the “gcPBM binding intensity (ln)” value was found to be 9.95 ± 0.61.

As to “AACAAGGCCCGGTACTGTACATTTTTTCATAACATT [XGTACX_site6134]”, the “gcPBM binding intensity (ln)” value was 8.64 ± 0.52.

As for “GTATGTATATTTATCTGTACATATTTATGTATTCTT [XGTACX_site2112]”, the “gcPBM binding intensity (ln)” value was 8.73 ± 0.28.

On to “TATATACATATATACACACACATATATTATATATAT [CACACA_site275]”, for which the “gcPBM binding intensity (ln)” value was 8.69 ± 0.27.

With “TTTTTTTTTATAGCTAAACACACATAAGAATATATG [CACACA_site8282]”, the “gcPBM binding intensity (ln)” value was found to be 8.28 ± 0.41.

For “TATAAATATAAAAGGAGTACAAATATATATATATAT [XGTACX_site1386]”, the “gcPBM binding intensity (ln)” value was 10.1 ± 0.22.

With “AGTTATAATAAAAAATGTACGTATTATCATTAAGAA [XGTACX_site4244]”, the “gcPBM binding intensity (ln)” value was 8.65 ± 0.26.

For “AAAAAAATTAAACATACACACGTTACTATTTTTATA [CACACA_site5009]”, the “gcPBM binding intensity (ln)” value turned out to be 8.19 ± 0.41.

As to “TCCTAATATATGTATGCACACACAATATATACATAT [CACACA_site9111]”, the “gcPBM binding intensity (ln)” value amounted to 8.63 ± 0.28.

Consider “GAAAATAAAAAATATGAACACACATATATAACAAAA [CACACA_site7975]”, for which the “gcPBM binding intensity (ln)” value was found to be 8.86 ± 0.25.

For “AAAATTGATATATGCACACATATATATATTAAATAT [CACACA_site763]”, the “gcPBM binding intensity (ln)” value came to 8.23 ± 0.43.

For “AAAAAAAAAAAAAACACACATACACATATATTTTTA [CACACA_site3893]”, the “gcPBM binding intensity (ln)” value is 8.43 ± 0.25.

Turning to “TTTCATTCTGGTATCACACATTTATTTTCTAGTTTA [CACACA_site4286]”, the “gcPBM binding intensity (ln)” value was determined as 8.88 ± 0.42.

With “AAAAAATAAAACATATATAATATATAATATATATAT [GTGCAC_negctrl_site447]”, the “gcPBM binding intensity (ln)” value stood at 9.06 ± 0.3.
